Data taken from PubChem BioAssay AID1671194 (National Center for Advancing Translational Sciences (NCATS), 2021).
Out of some 140,000 compounds screened, about 240 (0.17%) were called active. Inconclusive means that the source gave no clear call. Such entries were picked first, then a sample of the others. The call rests on the fitted dose curve; in most records, active means well fitted inhibition curve with a large enough effect; inconclusive means small, poorly fitted or top-dose-only effect; inactive means no such curve, though single readings can be large or run the other way. Potencies beside an inconclusive call are fits to weak or partial responses and may not hold up.

assay: Primary qHTS assay for inhibitors of alpha-synuclein gene (SNCA) expression; details: HEK-293 SNCA-luciferase knock-in, luminescence, 24 h; activity change, negative = inhibition: at 57.2 µM (top of the series) unless noted; further: nearly all actives have a fitted effect of over 45% in size;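 on activity change, negative = inhibition: plate controls were DMSO cells for no effect and cell-free wells for full effect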
Potency means the concentration at half of the fitted maximal effect; tags describe the fitted curve by direction and shape.

| Structure (SMILES) | Potency | activity change, negative = inhibition |
| --- | --- | --- |
| O=C(c1ccc2nc[nH]c2c1)N1CCCN(c2cc(-c3ccc(Br)cc3)[nH]n2)CC1 | inconclusive: 0.891 µM [inhibitor, full curve] |  |
| Cc1cc2ncc(C(=O)NCc3cccc(F)c3)cn2n1 | inconclusive: 56.2 µM [inhibitor, single point] |  |
| CC(C)C12CN3CC(C(C)C)(CN(C1)C3c1ccc(Cl)cc1)C2=O (stereo not given) | inconclusive: 5.62 µM [inhibitor, full curve, poor fit] |  |
| O=C(Cc1c[nH]c2ncc(-c3ccccc3Oc3ccccc3)cc12)NCc1cccnc1 | inconclusive: 50.1 µM [inhibitor, single point] |  |
| COc1cccc(N2C(=O)NC(=NC3CCCCC3)C23CCCN(Cc2cccnc2)C3)c1 (stereo not given) | inconclusive: 35.5 µM [inhibitor, single point] |  |
| Cc1cccc(CC(=O)N2CCC(Cc3nc(-c4ccccc4)no3)CC2)c1 |  | inactive: -26% |
| COc1cccc(Nc2ncc3nc(-c4cccs4)c(=O)n(CCC#N)c3n2)c1 | inconclusive: 39.8 µM [inhibitor, single point] |  |
| c1cncc(-c2cc(-c3ccc4cn[nH]c4c3)cn3cncc23)c1 | inconclusive: 7.94 µM [inhibitor, full curve] |  |
| CCc1nc(-c2ccc(OC3CCN(S(=O)(=O)c4cn(C)cn4)C3)cc2)no1 (stereo not given) |  | inactive: -28.6% |
| COc1cccc(C(=O)N2CCN(c3cc(C(F)(F)F)ncn3)CC2)c1OC | inconclusive: 3.98 µM [inhibitor, single point] |  |
| CCN(CC)S(=O)(=O)c1ccc(C(=O)Nc2nc3c(Cl)cc(Cl)cc3s2)cc1 | inconclusive: 5.62 µM [inhibitor, full curve, poor fit] |  |
| CN[C@@H]1[C@H](O)[C@H](CO)O[C@@H]1CNC1CCCCC1 | inconclusive: 56.2 µM [inhibitor, single point] |  |
| Cc1ccc(NS(=O)(=O)c2ccc3c(c2)NC(=O)CCS3)cc1C | inconclusive: 11.2 µM [inhibitor, partial curve, poor fit] |  |
| O=C(c1ccc(Oc2ccccc2)cc1)N1CCNc2cnc(Nc3cccc(C(F)(F)F)c3)nc2C1 | inconclusive: 35.5 µM [inhibitor, partial curve, poor fit] |  |
| Cc1cccc(-n2c3nc(=O)[nH]c(=O)c-3cc3c(Cl)cccc32)c1C | inconclusive: 28.2 µM [inhibitor, partial curve, poor fit] |  |
| COc1ccc(-c2nc(-c3c(C)noc3C)cc3c2cc(-c2ccccc2)n3C)cn1 | inconclusive: 7.08 µM [inhibitor, full curve, poor fit] |  |
| COc1ccc(C)cc1S(=O)(=O)N1CCN(c2cccc(Cl)c2)CC1 | inconclusive: 39.8 µM [inhibitor, single point] |  |
| c1cc(-c2noc([C@@H]3CCCN3C3CCC3)n2)cc(N2CCOCC2)n1 |  | inactive: 0.374% [at 87.6 µM] |
| O=C(Nc1ccc(Cl)cc1)N1CCc2nc(C3CC3)nc(-c3ccc(Cl)cc3)c2C1 | inconclusive: 39.8 µM [inhibitor, single point] |  |
| Cc1cccc(CNC(=O)c2cc3c(N4CCCC4)nc(C)cn3n2)c1 |  | inactive: 13.2% |

| Structure (SMILES) | Potency | activity change, negative = inhibition |
| --- | --- | --- |
| COc1cccc(NC(=O)CSc2ncc(S(=O)(=O)c3ccc(C)c(C)c3)c(=O)[nH]2)c1 | inconclusive: 31.6 µM [inhibitor, single point] |  |
| Cn1c(=O)c2c(-c3ccccc3Cl)n(-c3cc(Cl)ccc3O)cc2n(C)c1=O | inconclusive: 11.2 µM [inhibitor, partial curve, poor fit] |  |
| Cc1ccc(C(=O)CC2(O)C(=O)N(CCc3ccccc3)c3ccc(Cl)cc32)cc1 (stereo not given) | inconclusive: 12.6 µM [inhibitor, partial curve] |  |
| O=C(O)c1ccnc(-c2ccnc(NCCCN3CCCC3=O)n2)c1 |  | inactive: -17.1% |
| Cc1ccc(-c2cc(C(=O)NCc3ccc4c(c3)OCO4)c3cnn(C)c3n2)c(C)c1 |  | inactive: -4.31% |
| CSc1ccc(-c2cccc(C(=O)NCCN[S+](=O)([O-])c3cccc(C(F)(F)F)c3)c2)cc1 | inconclusive: 39.8 µM [inhibitor, single point] |  |
| Cc1cccc(NC(=O)CSc2nc(-c3ccccc3)cn2-c2ccccc2)c1C | inconclusive: 39.8 µM [inhibitor, single point] |  |
| COCCN1CCCCCC(O)c2cc(C(=O)NCCCc3ccccc3)ccc21 (stereo not given) |  | inactive: 8.01% |
| CC(C)(C)C(=O)NC1CCCN(c2ccnc3ccnn23)C1 (stereo not given) |  | inactive: 18.2% [at 87.6 µM] |
| CN(C(=O)c1ccc2c(c1)N(Cc1cccc(Cl)c1)C(=O)c1ccccc1S2=O)C1CCCCC1 (stereo not given) | inconclusive: 39.8 µM [inhibitor, single point] |  |
| CCOC(=O)C1=C(CS(=O)(=O)c2ccc(C)cc2)NC(=O)NC1c1ccc(C(C)C)cc1 (stereo not given) | inconclusive: 31.6 µM [inhibitor, single point] |  |
| O=C1CCC2(CNC(=O)c3cnccn3)CCCC=C2N1 (stereo not given) | inconclusive: 39.8 µM [inhibitor, single point] |  |
| O=C(c1nc2sccn2c1Br)N1CCOCC1 | inconclusive: 3.16 µM [inhibitor, partial curve, poor fit] |  |
| Cc1ccccc1NC(=O)CCc1ccnc(N2CCCC2)c1 |  | inactive: 21.8% |
| CC(C(=O)N1CC(Oc2ccc(-c3noc(-c4ccncc4)n3)cc2)C1)c1ccccc1 (stereo not given) | inconclusive: 10 µM [inhibitor, partial curve, poor fit] |  |
| Cc1nc2c(-c3ccccc3)c(C)nn2c(C)c1CCC(=O)NCc1ccccc1Cl | inconclusive: 7.08 µM [inhibitor, partial curve, poor fit] |  |
| O=C1NC2(CCN(Cc3ccccc3C(F)(F)F)CC2)COc2ccccc21 |  | inactive: -2.47% |
| O=C1N[C@H](CC(=O)N2CCN(c3ccc(C(F)(F)F)cn3)CC2)C(=O)Nc2ccccc21 | inconclusive: 6.31 µM [inhibitor, full curve, poor fit] |  |
| CCC(C(=O)NCc1nnc2c(-c3nc(C4CC4)no3)cccn12)c1ccccc1 (stereo not given) |  | inactive: 0.683% |
| CCN1CCCC12Cc1ccccc1CN(C(C)=O)C2 (stereo not given) | inconclusive: 2.51 µM [inhibitor, partial curve, poor fit] |  |
